# Experimental data: the supplement of paper PMC10037445
# “And” between values parts separate entries of the source, which are not always exact repeats. Identical values can stand only once. The full ranking holds about 2,900 compounds; the median of “IRF Lucia reporter activity, fold change vs agonist alone” is about 0.9, and the highest 2% start at about 2.8. This is one part of the list.
# Tests used:
# RAW-Dual [1] = test: IRF Lucia reporter activity, fold change vs agonist alone; higher = enhanced IRF activity; details: agonist: MPLA (TLR4) […]
# Method in brief: (§1)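 After 50 nL of library stock was delivered by pin tool to RAW-Dual macrophages (50,000 cells/well, DMEM, 384-well plates), a PRR agonist was added 1 h later and the plates were kept at 37 °C, 5% CO2. Twenty hours later, IRF was read from supernatant by QuantiLuc luminescence and NF-κB by QuantiBlue absorbance at 620 nm. Reporter activity is stated as fold change over agonist-alone wells. Wells with IncuCyte confluency under 70% of agonist controls in both mask sets were counted as cytotoxic.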
# RAW-Dual [2] = test: IRF Lucia reporter activity, fold change vs agonist alone; cytotoxicity flag (confluency mask): cytotoxic (confluency <70% of control); higher = enhanced IRF activity
# Method in brief: as §1
# RAW-Dual [3] = test: IRF Lucia reporter activity, fold change vs agonist alone; cytotoxicity flag (confluency mask): not cytotoxic; higher = enhanced IRF activity
# Method in brief: as §1
# [4] = library stock concentration (final ~1000-fold dilution): 10 mM, cytotoxicity flag (confluency mask): not cytotoxic
# [5] = library stock concentration (final ~1000-fold dilution): 10 mM, cytotoxicity flag (confluency mask): cytotoxic (confluency <70% of control)
# [6] = agonist: 3'3'-cGAMP (STING) 10 ug/mL
smiles,measurement,setting,value
CC(C)c1ccccc1Cc1cc(C(=O)Nc2ccc(S(=O)(=O)c3ccccc3C(C)(C)C)cc2)c(O)c(O)c1O,IRF Lucia reporter activity,RAW-Dual [1]; [4],1.03
Clc1ccc2c(c1)CCc1cccnc1C2=C1CCNCC1,IRF Lucia reporter activity,RAW-Dual [1]; [5],1.29
Clc1ccc2c(c1)CCc1cccnc1C2=C1CCNCC1 (library stock concentration (final ~1000-fold dilution): 10 mM),IRF Lucia reporter activity,RAW-Dual [2]; [6],0.432
same,IRF Lucia reporter activity,RAW-Dual [2]; agonist: LPS (TLR4) 0.1 ug/mL,0.436
Cl.O=C(O)/C=C/c1ccc(Cn2ccnc2)cc1 (library stock concentration (final ~1000-fold dilution): 10 mM),IRF Lucia reporter activity,RAW-Dual [3]; [6],1.06
same,IRF Lucia reporter activity,RAW-Dual [3]; agonist: LPS (TLR4) 0.1 ug/mL,0.861
Cl.O=C(O)/C=C/c1ccc(Cn2ccnc2)cc1,IRF Lucia reporter activity,RAW-Dual [1]; [4],0.942
O=C(Nc1c[nH]nc1-c1nc2cc(CN3CCOCC3)ccc2[nH]1)NC1CC1 (library stock concentration (final ~1000-fold dilution): 10 mM),IRF Lucia reporter activity,RAW-Dual [2]; [6],0.0103
same,IRF Lucia reporter activity,RAW-Dual [2]; agonist: LPS (TLR4) 0.1 ug/mL,0.017
O=C(Nc1c[nH]nc1-c1nc2cc(CN3CCOCC3)ccc2[nH]1)NC1CC1,IRF Lucia reporter activity,RAW-Dual [1]; [5],0.0171
O=C(NC1(c2ccccc2)CC1)c1c(CN2CCC(N3CCCCC3)CC2)c(-c2cccc(C(F)(F)F)c2)nc2cc(Br)ccc12 (library stock concentration (final ~1000-fold dilution): 10 mM),IRF Lucia reporter activity,RAW-Dual [2]; [6],0.512
same,IRF Lucia reporter activity,RAW-Dual [2]; agonist: LPS (TLR4) 0.1 ug/mL,1.83
Nc1nc(NCCNc2ncc(-n3ccnc3)c(-c3ccc(Cl)cc3Cl)n2)ccc1[N+](=O)[O-],IRF Lucia reporter activity,RAW-Dual [1]; [4],0.378
Nc1nc(NCCNc2ncc(-n3ccnc3)c(-c3ccc(Cl)cc3Cl)n2)ccc1[N+](=O)[O-] (library stock concentration (final ~1000-fold dilution): 10 mM),IRF Lucia reporter activity,RAW-Dual [3]; [6],0.703
same,IRF Lucia reporter activity,RAW-Dual [3]; agonist: LPS (TLR4) 0.1 ug/mL,0.0304
CCN(CC)c1ccc2cc(C(=O)O)c(=O)oc2c1,IRF Lucia reporter activity,RAW-Dual [1]; [4],0.961
CCN(CC)c1ccc2cc(C(=O)O)c(=O)oc2c1 (library stock concentration (final ~1000-fold dilution): 10 mM),IRF Lucia reporter activity,RAW-Dual [3]; [6],0.932
same,IRF Lucia reporter activity,RAW-Dual [3]; agonist: LPS (TLR4) 0.1 ug/mL,1.09
CCS(=O)(=O)N1CC(CC#N)(n2cc(-c3ncnc4[nH]ccc34)cn2)C1 (library stock concentration (final ~1000-fold dilution): 10 mM),IRF Lucia reporter activity,RAW-Dual [3]; [6],0.398 and 0.467
same,IRF Lucia reporter activity,RAW-Dual [3]; agonist: LPS (TLR4) 0.1 ug/mL,0.417 and 0.973
CCn1cc(C(=O)O)c(=O)c2cc(F)c(N3CCN(C)CC3)cc21.CS(=O)(=O)O.O.O (library stock concentration (final ~1000-fold dilution): 10 mM),IRF Lucia reporter activity,RAW-Dual [3]; [6],0.849
same,IRF Lucia reporter activity,RAW-Dual [3]; agonist: LPS (TLR4) 0.1 ug/mL,0.562
CCn1cc(C(=O)O)c(=O)c2cc(F)c(N3CCN(C)CC3)cc21.CS(=O)(=O)O.O.O,IRF Lucia reporter activity,RAW-Dual [1]; [4],0.856
CSC(=N)N (library stock concentration (final ~1000-fold dilution): 10 mM water),IRF Lucia reporter activity,RAW-Dual [3]; [6],1.14
same,IRF Lucia reporter activity,RAW-Dual [3]; agonist: LPS (TLR4) 0.1 ug/mL,0.899
CSC(=N)N,IRF Lucia reporter activity,"RAW-Dual [1]; library stock concentration (final ~1000-fold dilution): 10 mM water, cytotoxicity flag (confluency mask): not cytotoxic",1.35
Nc1nccc(Oc2ccc(NC(=O)c3c[nH]cc(-c4ccc(F)cc4)c3=O)cc2F)c1Cl (library stock concentration (final ~1000-fold dilution): 10 mM),IRF Lucia reporter activity,RAW-Dual [3]; [6],0.225
same,IRF Lucia reporter activity,RAW-Dual [3]; agonist: LPS (TLR4) 0.1 ug/mL,0.182
Nc1nccc(Oc2ccc(NC(=O)c3c[nH]cc(-c4ccc(F)cc4)c3=O)cc2F)c1Cl,IRF Lucia reporter activity,RAW-Dual [1]; [4],0.395
C#CCNC1CCc2ccccc21 (stereo not drawn),IRF Lucia reporter activity,RAW-Dual [1]; [4],1.04
C#CCNC1CCc2ccccc21 (stereo not drawn) (library stock concentration (final ~1000-fold dilution): 10 mM),IRF Lucia reporter activity,RAW-Dual [3]; [6],1.09
same,IRF Lucia reporter activity,RAW-Dual [3]; agonist: LPS (TLR4) 0.1 ug/mL,1.04
CNC(C)C(=O)NC1CN(C(=O)CC(C)C)CCC2CCC(C(=O)NC(c3ccccc3)c3ccccc3)N2C1=O (stereo not drawn) (library stock concentration (final ~1000-fold dilution): 10 mM),IRF Lucia reporter activity,RAW-Dual [3]; [6],0.81
same,IRF Lucia reporter activity,RAW-Dual [3]; agonist: LPS (TLR4) 0.1 ug/mL,0.595
CNC(C)C(=O)NC1CN(C(=O)CC(C)C)CCC2CCC(C(=O)NC(c3ccccc3)c3ccccc3)N2C1=O (stereo not drawn),IRF Lucia reporter activity,RAW-Dual [1]; [4],0.522
CC1CC(=O)Nc2cccc(-c3ccc4c(c3)c(-c3cnn(C)c3)nn4C)c2N1 (stereo not drawn) (library stock concentration (final ~1000-fold dilution): 10 mM),IRF Lucia reporter activity,RAW-Dual [3]; [6],0.64
same,IRF Lucia reporter activity,RAW-Dual [3]; agonist: LPS (TLR4) 0.1 ug/mL,0.169
Clc1ccc(N/N=C(\c2ccccc2)c2ccccn2)nc1,IRF Lucia reporter activity,RAW-Dual [1]; [4],0.334
Clc1ccc(N/N=C(\c2ccccc2)c2ccccn2)nc1 (library stock concentration (final ~1000-fold dilution): 10 mM),IRF Lucia reporter activity,RAW-Dual [3]; [6],1.83
same,IRF Lucia reporter activity,RAW-Dual [3]; agonist: LPS (TLR4) 0.1 ug/mL,0.818
CCC1(O)CC2CN(CCc3c([nH]c4ccccc34)C(C(=O)OC)(c3cc4c(cc3OC)N(C=O)C3C(O)(C(=O)OC)C(OC(C)=O)C5(CC)C=CCN6CCC43C65)C2)C1.O=S(=O)(O)O (stereo not drawn) (library stock concentration (final ~1000-fold dilution): 10 mM),IRF Lucia reporter activity,RAW-Dual [3]; [6],0.107
same,IRF Lucia reporter activity,RAW-Dual [3]; agonist: LPS (TLR4) 0.1 ug/mL,2.02
CCC1(O)CC2CN(CCc3c([nH]c4ccccc34)C(C(=O)OC)(c3cc4c(cc3OC)N(C=O)C3C(O)(C(=O)OC)C(OC(C)=O)C5(CC)C=CCN6CCC43C65)C2)C1.O=S(=O)(O)O (stereo not drawn),IRF Lucia reporter activity,RAW-Dual [1]; [4],1.06
